Whole data set: some 16,000 sequences, median “Z-score” near -0.37, cut for the highest 2% near 3.1. This is one part of the list.
tested on: RBM10 RRM1-ZnF-RRM2 (GST-tagged construct); test: RNAcompete 7-mer binding Z-score; higher = stronger binding preference
How it was run: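 GST-tagged RBM10 constructs (20 pmol) and a designed pool of 241 399 RNAs up to 41 nt (1.5 nmol) were allowed to bind for 30 min at 4°C in 1 ml Hepes pH 7.8 buffer with glutathione Sepharose beads. After four 2-min washes at 4°C, bound RNA was identified by microarray hybridisation. Enrichment was scored per heptamer motif as a one-sided Z-score across the probes containing it.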

Sequence | RNAcompete 7-mer binding Z-score
CCGAAUG | -0.657
UUAUCGU | -0.449
AGCCCUC | -0.905
UGGAACC | 0.683
AGCCAAU | -0.195
ACUGUAG | -0.133
UCUUCGU | -0.606
UAACCGC | -0.635
GACCACA | -0.453
GAGUAGC | 0.443
GACUGUA | -0.5
CGAGUGG | 2.32
CCCUUUC | -0.887
UUGCAGG | 0.603
CGUCUCC | -0.657
CUCGAAC | -0.726
UUCCGGC | -0.683
GGUGCCU | 0.0823
CCCCUCG | -0.573
UUUUGUU | -0.544
GCCUGGG | 0.275
AUAGAAC | 0.29
GCCUGUC | -0.73
CAUUCCA | -0.697
GGCAUUG | 0.669

Sequence | RNAcompete 7-mer binding Z-score
ACUGUAC | -0.748
AUACAUC | -0.533
UCAAACG | -0.326
AUUGUAC | -0.584
GAUUGGC | 0.927
CGGCAUU | -0.398
UGUUACC | -0.668
UCGACCA | -0.566
UAAGUGU | 0.00216
UCUACAC | -0.653
CCAGAUU | -0.799
UCAGCCC | -0.737
GAGUCAC | 0.00944
UACGCAU | -0.286
CACCAGC | -0.562
AAUUCUA | -0.602
AAGCUUC | -0.679
ACUCGCU | -0.712
CUUCUUA | -0.755
CUUGCUC | -0.89
UAGCCUG | -0.788
GACGAAA | 0.33
UACUACG | -0.522
GAUUCUG | -0.537
UAAGUUU | -0.464

Sequence | RNAcompete 7-mer binding Z-score
UUAGACA | -0.147
AGGUAGA | 2.42
CGCAGGG | 1.78
UAAUACC | -0.599
UCAGGGC | 1.11
GAGUAAA | 0.796
GUUGACU | -0.242
GCAUAAG | 0.115
AGAAUCC | -0.803
GCGAAAU | -0.0488
UUGAUCA | -0.435
UGUCAAA | -0.369
AGUUCCU | -0.77
AUGCAAU | 0.0532
GUCAGGG | 1.81
UUAAAAU | -0.482
AGAGAAG | 1.63
CCGUGGC | -0.067
CAUCAUG | -0.548
GGGUGGG | 4.11
UCGGCAC | -0.431
UCACUCU | -0.89
UGGCCCC | -0.333
UUCGUAU | -0.592
CCAACUA | -0.668

Sequence | RNAcompete 7-mer binding Z-score
GAUCUAA | -0.584
AUAUCAG | -0.136
GGCUCGG | 0.581
GGAGCGG | 4.19
GAGAAGC | 0.614
CACUCAU | -0.89
AAAACUC | -0.748
UCGCAGU | -0.449
GCUACAU | -0.402
GCGGUAG | 1.58
GGGCACG | 2.22
UCUGUCA | -0.635
ACACGAA | -0.275
UCGGUCU | -0.653
GAACUAC | -0.595
AUGGGUG | 3.74
GGGAUCG | 1.93
GUCUCAG | -0.511
AGGAAGU | 1.21
UUUUCAC | -0.723
CCCUUGA | -0.919
CAAAGCC | -0.81
AGAGUUG | 0.53
CAGUGUA | 0.111
AUAGUUA | -0.078

Sequence | RNAcompete 7-mer binding Z-score
CAUCACG | -0.508
AAAUACC | -0.599
CCGUCAA | -0.592
AGUUAGC | -0.0743
CUGGAGG | 1.11
CGGCACA | 0.133
UAGCUCU | -0.715
AAUCCGG | -0.213
UCCUUAG | -0.672
GGCUUUU | -0.449
GCGUAGU | 0.374
GGGUCGC | 1.14
ACUGCGC | -0.643
GCUAGAC | -0.34
CAAUUCG | -0.355
GAAACCA | -0.00512
AGGUACG | 0.909
CCAAGUG | -0.133
CUUAACA | -0.726
CUUGAGU | -0.73
UUAGAGG | 1.24
AGAGUUC | -0.369
UCUGUUU | -0.704
UGAAUAG | 0.399
GAAAGCA | 0.49

Sequence | RNAcompete 7-mer binding Z-score
GGGCGCC | 0.13
GCACCGG | 0.61
CCCUCUG | -0.737
UUCUUGC | -0.93
GCGUACG | 0.221
AGUUGCG | 0.166
CGUGGUA | 0.589
AAUGCGC | -0.38
AGGAGGG | 3.31
CCUGCUC | -1.02
GAAAGGU | 4.42
GCCCUAU | -0.945
CUACACC | -0.683
CAUCUAA | -0.723
CUACCUA | -0.748
GUGCGCA | 0.428
GAUCCUA | -0.701
GUGAAUU | 0.162
GGGUGAU | 3.16
CCGACUA | -0.606
CGCACCA | -0.744
AGGAAAG | 2.81
GGUACAA | 1.81
AACCGUA | -0.653
AUCGAUC | -0.562

Sequence | RNAcompete 7-mer binding Z-score
GUGCAGG | 2.24
ACUAACA | -0.428
UUUACAU | -0.57
AUUUUAG | -0.628
GACUCCG | -0.679
UUAGAAG | 0.126
GGGGGAG | 2.6
GACCUUU | -1.05
UACUGAC | -0.628
GUGAGAA | 1.36
UGGUAGC | 1.01
GAGAAUG | 1.66
AGUUAGU | 0.0204
UUGGAUU | 0.159
AGCGGCG | 1.61
AUCCAGA | -0.307
GGUACGU | 0.76
AAACACG | -0.187
ACAGAGU | 0.323
UCAUUGC | -0.781
ACAAUUU | -0.817
UUAGCCU | -0.89
ACCCGAG | -0.486
CACAGCU | -0.559
UUCAACU | -0.832

Sequence | RNAcompete 7-mer binding Z-score
UGCUACC | -0.73
ACAUUGC | -0.675
AAUUGUU | -0.508
CAGGAAG | 1.91
UCUUUAA | -0.803
ACCAUAG | -0.449
AUCCUAG | -0.679
CGUGGCU | 0.0677
CACAAAC | -0.428
CGCCCGA | -0.872
AUGAUAC | -0.111
CACCCAU | -0.755
UGACCUU | -0.923
GAGUAGU | 0.68
GUUUUCC | -0.508
ACGUACG | 0.141
AUCUUAU | -0.715
CGGGUUG | 2.32
CAUCUGA | -0.741
ACUUAGG | 0.162
GUAGCAC | 0.111
AGACUUU | -0.897
GGGACUG | 1.78
ACUCCCG | -0.766
CGCUACG | -0.333

Sequence | RNAcompete 7-mer binding Z-score
GUAUACC | -0.289
GCUUUAA | -0.726
UUCUACU | -0.792
CACGAAA | -0.366
GAUAUAA | -0.00512
CGUCGCU | -0.548
GUUAUAA | -0.246
UUAUCUG | -0.679
AACGUCA | -0.697
GUAUUGG | 1.66
UCACCCG | -0.912
CUUAUGU | -0.821
UCAGUGU | -0.114
CGGCACC | -0.253
UGUGUUA | -0.46
GUUGUGA | 0.468
CGAAGCA | -0.0707
GAAGCGA | 1.16
AUCGGGA | 1.87
CCCACCG | -0.664
GAUACAC | -0.18
UAUGAAG | 0.108
CUAUAUA | -0.621
GCGGAUU | 0.756
UGUUUGA | -0.154

Sequence | RNAcompete 7-mer binding Z-score
UGUCUAA | -0.719
UGUAGUG | 0.691
ACUUUCG | -0.908
AAGCUAU | -0.275
CCACAUC | -0.73
AGAGAGC | 0.133
AAGAUCA | -0.0488
AGGCCGU | -0.428
CCAAAAA | -0.632
AUCCACU | -0.763
ACGUGUG | 0.417
UCUCACU | -0.792
UUGGCAA | 0.523
CGGAUAU | 0.348
ACCCAUU | -1.02
AAGCCGC | -0.595
GAGUUGC | 0.0568
CGACGCG | 0.0532
CGGACAC | 0.104
UAAGCCC | -0.912
CAGGCCC | -0.69
GGCCUGU | -0.439
GGUCGAG | 1.86
UUGAUUG | -0.154
UUCAAGC | -0.668

Sequence | RNAcompete 7-mer binding Z-score
CACGGAA | 0.661
GGCUAGA | 0.53
UAGCGGG | 2.46
CAUGCUG | -0.431
GCACACG | -0.0925
AAUUACU | -0.555
UGAAGAA | 0.159
CCACCCA | -0.471
UUCUCGU | -0.672
GUGUGAG | 1.94
GAAAUAC | -0.0925
UGCCCCA | -0.635
GUCCUCG | -0.628
GGCUUAU | -0.428
AUGAUAA | -0.114
AGACGAG | 0.891
GGUAAUU | 0.789
UUGCACA | -0.657
UUUAACA | -0.683
UCCUACU | -1.03
GCGUGGC | 1.4
UGACCUA | -0.781
CAGAGGA | 1.33
GCGUCCG | -0.541
GCCGAUU | -0.744

Sequence | RNAcompete 7-mer binding Z-score
CUGCACG | -0.661
CUAGUCU | -0.723
GGCGAAU | 0.975
UCAGCAU | -0.315
UCUACCC | -0.839
CUGGAUA | 0.355
CAUUUGC | -1.04
CCUUGCU | -0.963
CGUUUAC | -0.675
GCUGCAA | -0.329
UACCUAC | -0.872
CGUUGAG | -0.0816
CCAGCGC | -0.522
GAGGUGA | 2.6
GCGCCCA | -0.81
CCCGACG | -0.329
GCUUGUA | -0.668
CCCGGGC | -0.205
AGCCACU | -0.897
CAGAUAA | -0.191
UGGAAGC | 1.59
GGAAAUU | 0.938
GUCGGUG | 1.49
CCUUCAU | -0.908
AGAUUUU | -0.471

Sequence | RNAcompete 7-mer binding Z-score
UGAGUUC | -0.417
UCUUCGA | -0.73
CUUCUCG | -0.65
CUUGAGA | -0.442
UGCAGAC | -0.275
UAAAGUG | 0.304
UAGCUAC | -0.566
UGCCUGU | -0.795
GAGUGUU | 0.432
CACGACC | -0.708
AACACAC | -0.428
UUUAAAC | -0.723
GUUUAUC | -0.551
CCCUCCU | -0.766
CCAACAA | -0.624
UCGUAAA | -0.409
GUCUGGG | 0.935
GUCGGCC | -0.42
GGUUCAA | 0.385
CAAGACG | -0.198
UUAUAAC | -0.657
AUAUAGA | 0.0349
CGUAUAG | -0.067
CAGUUAC | -0.413
GUCGCAG | 0.108

Sequence | RNAcompete 7-mer binding Z-score
AGCGGCU | 0.0532
AGCACGG | 0.945
CGCACUG | -0.53
CAUCGCG | -0.526
CCCCGCU | -0.617
GGGAGUU | 1.94
AAGCUCU | -0.755
ACACAAC | -0.333
GGGCGCA | 1.38
CGGGUGA | 2.55
GCUGUCG | -0.424
UCAUCAG | -0.475
GUACGCC | -0.373
AUGGUAG | 2.45
AAGUUUU | -0.329
CACAAAU | -0.555
AGUCGUG | 0.366
AAGAGGU | 1.66
UACCCCU | -0.65
AUUCUAC | -0.766
CUUAGGA | 0.122
CUAGUAG | -0.256
GAGUGAC | 0.905
CGCGUAG | 0.0568
CAUCCGU | -0.792

Sequence | RNAcompete 7-mer binding Z-score
UCCCGUA | -0.431
GAGCAAA | 0.534
UCACGAA | -0.439
GCCAAGA | -0.329
CCGCCUU | -0.941
GCAGUAU | 0.0859
CAAGUGU | -0.103
UGUAUGU | -0.187
AUUUAGU | -0.304
AGGUUUA | 0.432
GUGUUCG | -0.122
UACGCAA | -0.442
UUCGCCG | -0.643
CGUCGAU | -0.253
AGCAAUA | -0.0343
AGACGAU | -0.14
GGGCCCG | 0.195

Reference: the supplement of paper PMC5499739
